Lines with a small IC50 respond at low doses; a fit beyond the top or the lowest dose is shown as a bound at that dose. AUC is the area under the same curve over the 256-fold range up to the top dose, as a fraction: 1 means no effect, lower means more sensitive. A top dose marked as inferred is not printed in the source and was worked back from the curve model.
What follows are cell lines tested with CCn1cc(-c2ccnc3[nH]c(-c4cccc(CN(C)C)c4)cc23)c(-c2ccc(NC(=O)N(C)C)cc2)n1 [GSK1070916] (assay: Viability of human cancer cell lines after 72 h of drug (GDSC screen)). Conditions: top dose inferred.
Procedure: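 Human cancer cell lines in 384-well plates, medium with 10% serum, drug for 72 h over a 256-fold dose range (nine 2-fold or five 4-fold steps up to the top dose). Adherent lines were fixed and stained with the nucleic acid dye Syto60, suspension lines read with resazurin; signal relative to control wells, capped at 0 and 100%. One two-parameter sigmoid per drug and line, fitted in a mixed model over all curves with the slope shared within a line.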

Going from “PCI-30 (head and neck, adherent, top dose 2.56 µM)” to “KNS-42 (glioma, adherent, top dose 2.56 µM)”, the AUC falls from 0.984 to 0.977.

Going from “NCI-H2171 (small cell lung carcinoma, suspension, top dose 2.56 µM)” to “MZ2-MEL (melanoma, adherent, top dose 2.56 µM)”, the AUC rises from 0.041 to 0.94.

Going from “NCI-H1417 (small cell lung carcinoma, suspension, top dose 2.56 µM)” to “HCC-44 (lung adenocarcinoma, adherent, top dose 2.56 µM)”, the AUC rises from 0.783 to 0.903.

Compared with “LS-513 (large intestine, adherent, top dose 2.56 µM)”, C3A (liver, adherent, top dose 2.56 µM) is higher in AUC: 0.83 for the first, 0.988 for the second.

Compared with “IPC-298 (melanoma, adherent, top dose 2.56 µM)”, “CAL-62 (thyroid, adherent, top dose 2.56 µM)” is higher in AUC: 0.972 for the first, 0.983 for the second.

Going from “NCI-H1437 (lung adenocarcinoma, adherent, top dose 2.56 µM)” to “MDA-MB-415 (breast, adherent, top dose 2.56 µM)”, the AUC rises from 0.954 to 0.983.

Going from “HDLM-2 (Hodgkin lymphoma, suspension, top dose 2.56 µM)” to “SiHa (cervix, adherent, top dose 2.56 µM)”, the AUC rises from 0.888 to 0.987.

First: TE-4 (oesophagus, adherent, top dose 2.56 µM)
Second: OAW-42 (ovary, adherent, top dose 2.56 µM)
The AUC of the first is higher: 0.987 for the first, 0.928 for the second.

Compared with “A427 (non-small cell lung carcinoma, adherent, top dose 2.56 µM)”, “Saos-2 (osteosarcoma, adherent, top dose 2.56 µM)” is higher in AUC: 0.938 for the first, 0.981 for the second.

Going from “KYSE-50 (oesophagus, adherent, top dose 2.56 µM)” to “HCC1428 (breast, adherent, top dose 2.56 µM)”, the AUC rises from 0.854 to 0.985.

Going from “RPMI-8402 (T-cell lymphoblastic leukaemia, suspension, top dose 2.56 µM)” to “KP-3 (pancreas, adherent, top dose 2.56 µM)”, the AUC rises from 0.141 to 0.952.

Compared with “786-0 (kidney, adherent, top dose 2.56 µM)”, “SBC-5 (small cell lung carcinoma, adherent, top dose 2.56 µM)” is higher in AUC: 0.893 for the first, 0.993 for the second.

First: EW-7 (Ewing sarcoma, semi-adherent, top dose 2.56 µM)
Second: SK-ES-1 (Ewing sarcoma, semi-adherent, top dose 2.56 µM)
The AUC of the first is higher: 0.692 for the first, 0.29 for the second.

First: DK-MG (glioma, adherent, top dose 2.56 µM)
Second: SUP-T1 (T-cell lymphoblastic leukaemia, suspension, top dose 2.56 µM)
The AUC of the first is higher: 0.842 for the first, 0.685 for the second.

Going from “MOLP-8 (myeloma, suspension, top dose 2.56 µM)” to RKN (ovary, adherent, top dose 2.56 µM), the AUC rises from 0.368 to 0.983.

Going from “JM1 (B-cell lymphoma, suspension, top dose 2.56 µM)” to “RXF393 (kidney, adherent, top dose 2.56 µM)”, the AUC rises from 0.25 to 0.864.

“MPP-89 (mesothelioma, adherent, top dose 2.56 µM)” gave an AUC of 0.976.

“PCI-30 (head and neck, adherent, top dose 2.56 µM)” and “KNS-42 (glioma, adherent, top dose 2.56 µM)” cannot be ordered by IC50: greater than 2.56 µM for the first, greater than 2.56 µM for the second.

Going from “NCI-H2171 (small cell lung carcinoma, suspension, top dose 2.56 µM)” to “MZ2-MEL (melanoma, adherent, top dose 2.56 µM)”, the IC50 rises from less than 0.01 µM to greater than 2.56 µM.

First: NCI-H1417 (small cell lung carcinoma, suspension, top dose 2.56 µM)
Second: HCC-44 (lung adenocarcinoma, adherent, top dose 2.56 µM)
The IC50 of the first is lower: 1.3 µM for the first, greater than 2.56 µM for the second.

Going from “LS-513 (large intestine, adherent, top dose 2.56 µM)” to C3A (liver, adherent, top dose 2.56 µM), the IC50 rises from 1.69 µM to greater than 2.56 µM.

“IPC-298 (melanoma, adherent, top dose 2.56 µM)” and “CAL-62 (thyroid, adherent, top dose 2.56 µM)” cannot be ordered by IC50: greater than 2.56 µM for the first, greater than 2.56 µM for the second.

“NCI-H1437 (lung adenocarcinoma, adherent, top dose 2.56 µM)” and “MDA-MB-415 (breast, adherent, top dose 2.56 µM)” cannot be ordered by IC50: greater than 2.56 µM for the first, greater than 2.56 µM for the second.

“HDLM-2 (Hodgkin lymphoma, suspension, top dose 2.56 µM)” and “SiHa (cervix, adherent, top dose 2.56 µM)” cannot be ordered by IC50: greater than 2.56 µM for the first, greater than 2.56 µM for the second.

“TE-4 (oesophagus, adherent, top dose 2.56 µM)” and “OAW-42 (ovary, adherent, top dose 2.56 µM)” cannot be ordered by IC50: greater than 2.56 µM for the first, greater than 2.56 µM for the second.

“A427 (non-small cell lung carcinoma, adherent, top dose 2.56 µM)” and “Saos-2 (osteosarcoma, adherent, top dose 2.56 µM)” cannot be ordered by IC50: greater than 2.56 µM for the first, greater than 2.56 µM for the second.

First: KYSE-50 (oesophagus, adherent, top dose 2.56 µM)
Second: HCC1428 (breast, adherent, top dose 2.56 µM)
The IC50 of the first is lower: 1.75 µM for the first, greater than 2.56 µM for the second.

Going from “RPMI-8402 (T-cell lymphoblastic leukaemia, suspension, top dose 2.56 µM)” to “KP-3 (pancreas, adherent, top dose 2.56 µM)”, the IC50 rises from 0.016 µM to greater than 2.56 µM.

“786-0 (kidney, adherent, top dose 2.56 µM)” and “SBC-5 (small cell lung carcinoma, adherent, top dose 2.56 µM)” cannot be ordered by IC50: greater than 2.56 µM for the first, greater than 2.56 µM for the second.

Compared with “EW-7 (Ewing sarcoma, semi-adherent, top dose 2.56 µM)”, “SK-ES-1 (Ewing sarcoma, semi-adherent, top dose 2.56 µM)” is 13-fold lower in IC50: 0.513 µM for the first, 0.0391 µM for the second.

First: DK-MG (glioma, adherent, top dose 2.56 µM)
Second: SUP-T1 (T-cell lymphoblastic leukaemia, suspension, top dose 2.56 µM)
The IC50 of the first is higher: greater than 2.56 µM for the first, 0.499 µM for the second.

Going from “MOLP-8 (myeloma, suspension, top dose 2.56 µM)” to RKN (ovary, adherent, top dose 2.56 µM), the IC50 rises from 0.0703 µM to greater than 2.56 µM.

Going from “JM1 (B-cell lymphoma, suspension, top dose 2.56 µM)” to “RXF393 (kidney, adherent, top dose 2.56 µM)”, the IC50 rises from 0.0348 µM to greater than 2.56 µM.

“MPP-89 (mesothelioma, adherent, top dose 2.56 µM)” gave an IC50 greater than 2.56 µM.

From the supplement of paper PMC4967469
